# Some of the results follow. These are enrichments in a pooled selection; single values are uncertain. Scores sum up all selected molecules that hold the word; the word was not tested alone.
# How the values were obtained:
# Assay in all cases: 6-mer SELEX enrichment z-score vs GST control; IMP3 is the RNA-binding protein IGF2BP3; higher = more enriched by binding
# [1] = system: IMP3 KH1-4; conditions: construct: KH1-4 (164-579); SELEX round: R4
# Procedure: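 SELEX-seq with GST-tagged IMP3 KH1-4 (Pro164-Lys579) and an N40 RNA pool, round 4. 6-mer z-score of sequence-tag enrichment normalised to the corresponding GST SELEX round; RNA k-mers written as DNA (T for U).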
# [2] = system: IMP3 RRM1-2; conditions: construct: RRM1-2 (1-163); SELEX round: R2
# IMP3 RRM1-2, sequence (chain, as listed by the source): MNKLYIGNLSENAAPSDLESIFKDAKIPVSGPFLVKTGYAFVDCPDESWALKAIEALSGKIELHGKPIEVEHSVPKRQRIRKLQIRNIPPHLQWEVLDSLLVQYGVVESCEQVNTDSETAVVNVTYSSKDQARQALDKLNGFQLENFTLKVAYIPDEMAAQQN
# Procedure: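 SELEX-seq with GST-tagged IMP3 RRM1-2 (Met1-Asn163) and an N40 RNA pool, round 2. 6-mer enrichment z-score normalised to GST SELEX. RNA written as DNA (T = U).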
# [3] = system: IMP3 KH1-2; conditions: construct: KH1-2 (164-376); SELEX round: R4
# IMP3 KH1-2, sequence (chain, as listed by the source): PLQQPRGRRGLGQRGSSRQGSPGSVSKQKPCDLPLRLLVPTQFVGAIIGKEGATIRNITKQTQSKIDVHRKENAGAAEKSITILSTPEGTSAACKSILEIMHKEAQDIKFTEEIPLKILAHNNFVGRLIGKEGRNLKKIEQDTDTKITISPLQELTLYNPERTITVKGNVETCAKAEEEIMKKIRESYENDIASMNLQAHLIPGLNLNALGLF
# Procedure: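 SELEX-seq with GST-tagged IMP3 KH1-2 (Pro164-Phe376) and an N40 RNA pool, round 4 (stringent 300/600 mM KCl washes). 6-mer z-score of sequence-tag enrichment normalised to the corresponding GST SELEX round; RNA k-mers written as DNA (T for U).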
# [4] = system: IMP3 KH3-4; conditions: construct: KH3-4 (377-579); SELEX round: R4
# IMP3 KH3-4, sequence (chain, as listed by the source): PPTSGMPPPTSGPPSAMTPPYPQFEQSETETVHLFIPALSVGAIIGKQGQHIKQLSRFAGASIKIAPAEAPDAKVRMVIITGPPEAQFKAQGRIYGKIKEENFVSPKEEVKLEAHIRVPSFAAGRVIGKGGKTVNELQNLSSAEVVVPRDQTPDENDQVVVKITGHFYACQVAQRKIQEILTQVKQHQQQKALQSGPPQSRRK
# Procedure: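 SELEX-seq with GST-tagged IMP3 KH3-4 (Pro377-Lys579) and an N40 RNA pool, round 4. 6-mer z-score of sequence-tag enrichment normalised to the corresponding GST SELEX round; RNA k-mers written as DNA (T for U).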
# IMP3 KH1-4, sequence (chain, as listed by the source): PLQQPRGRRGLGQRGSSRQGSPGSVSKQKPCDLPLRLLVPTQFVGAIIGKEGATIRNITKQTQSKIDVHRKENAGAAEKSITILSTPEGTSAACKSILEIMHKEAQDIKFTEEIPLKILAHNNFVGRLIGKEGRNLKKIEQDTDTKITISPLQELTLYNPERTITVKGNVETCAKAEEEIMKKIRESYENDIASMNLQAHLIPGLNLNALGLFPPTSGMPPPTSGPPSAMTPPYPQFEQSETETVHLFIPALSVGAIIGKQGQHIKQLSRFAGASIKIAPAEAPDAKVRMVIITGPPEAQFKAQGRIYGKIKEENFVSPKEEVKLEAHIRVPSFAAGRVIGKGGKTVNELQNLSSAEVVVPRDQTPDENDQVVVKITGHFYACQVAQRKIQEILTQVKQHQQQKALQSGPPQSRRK
Sequence,6-mer SELEX enrichment z-score [1],6-mer SELEX enrichment z-score [2],6-mer SELEX enrichment z-score [3],6-mer SELEX enrichment z-score [4]
ATCGTT,0.175,0.23,-0.05,0.128
TTCGAT,-0.13,0.135,-0.096,0.017
TGGAGG,0.699,0.023,0.721,0.653
GCGTGA,-1.19,-0.181,-1.02,-0.764
CAAAAA,-2.28,-1.98,-1.83,-1.51
TAGTCC,-0.042,0.028,-0.167,-0.307
GCTGGG,0.221,0.232,0.421,0.307
GTTGCA,0.193,0.352,0.041,0.086
GTACTC,-1.15,0.144,-1.03,-1.01
TTTGGA,-0.106,0.087,-0.148,0.117
GAGTTC,-0.176,0.187,-0.176,-0.066
CAAACC,-1.94,-0.181,-1.58,-2.74
GCTGAC,-0.623,-0.261,-0.582,-0.741
CCGCTG,0.069,-0.305,0.337,-0.31
TATTCC,0.719,0.007,0.671,0.449
CTGAGC,-3.14,-0.254,-2.97,-2.91
GTGCAT,0.571,0.49,0.344,0.387
CTTGAA,-0.872,-0.639,-0.836,-0.759
TATCGC,0.535,0.168,0.426,0.352
ACAGGT,0.32,0.533,0.239,0.28
GGCTGG,0.534,0.261,0.638,0.51
GGATGG,1.14,-0.103,1.07,1.12
CGAAAG,-1.88,-1.65,-1.77,-1.59
CGGTGG,0.237,0.133,0.336,0.237
CCGGCC,0.493,-0.465,0.422,-0.07
CGTACT,-0.914,-0.148,-0.77,-0.784
CGGCCT,0.437,0.07,0.313,0.435
AACGGA,-0.209,-1.55,-0.547,-0.028
TGTACG,-0.058,-0.225,-0.22,-0.123
CAGAGA,0.265,-0.262,0.267,0.297

# Source: the supplement of paper PMC6531468
